Assay results from PubChem BioAssay AID485344 (National Center for Advancing Translational Sciences (NCATS), 2010).
In all, about 340,000 compounds went through this assay and about 6,900 (2%) were called active. Cut-off read from the data, not from the text of the source: active = inhibition above about 30%; inactive = below that, where a call was filed. This is a selection; strong and weak results do not stand in their true shares. Entries without a call were filed so in the source.

Target: D(2) dopamine receptor (Homo sapiens) (UniProt P14416)
Test: HTS Assay for Allosteric Antagonists of the Human D2 Dopamine Receptor: Primary Screen for Antagonists; note: 0% is about no effect
Conditions: HEK293 TREx D2 cells, calcium flux, dopamine EC80; at 10 µM; stronger effect = higher value
In short: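 Inhibition of EC80 dopamine-driven calcium flux, recorded kinetically, defines activity here; cells are a tetracycline-induced HEK293 T-REx line expressing force-coupled D2.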

Chain of UniProt P14416 (P14416 whole entry, looked up): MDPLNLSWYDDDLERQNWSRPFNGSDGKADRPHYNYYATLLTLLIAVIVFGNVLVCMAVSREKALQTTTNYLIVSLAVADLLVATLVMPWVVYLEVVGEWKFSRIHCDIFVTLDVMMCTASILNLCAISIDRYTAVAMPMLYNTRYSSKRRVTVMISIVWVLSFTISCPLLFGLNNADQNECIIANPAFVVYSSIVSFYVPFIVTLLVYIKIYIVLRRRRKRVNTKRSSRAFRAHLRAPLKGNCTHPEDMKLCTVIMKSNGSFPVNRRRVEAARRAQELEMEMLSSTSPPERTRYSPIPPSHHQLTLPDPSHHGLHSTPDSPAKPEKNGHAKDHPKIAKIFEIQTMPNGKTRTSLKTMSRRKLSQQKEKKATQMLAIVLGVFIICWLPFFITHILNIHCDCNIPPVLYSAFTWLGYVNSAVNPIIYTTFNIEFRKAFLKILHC

Row | SMILES | inhibition
1 | O=c1c2c3c(sc2nnn1Cc1ccc(F)cc1)CCCC3 | -3.11%
2 | COc1ccc(-n2ccnc(NCc3cccs3)c2=O)cc1 | 3.01%
3 | CCOc1ccc(-n2c(C)nc3cc(C(=O)NCc4ccc(C)cc4)ccc32)cc1 | 4.66%
4 | COc1ccc(-c2ccc(-c3noc(-c4cc(OC)cc(OC)c4)n3)c(OC)n2)cc1 | -2.63%
5 | O=C(O)CNC(=O)c1ccccc1Br | active: 39.8%
6 | CCNc1nc(CSc2ccccc2)nc2sc(C)c(C)c12 | active: 39.3%
7 | CCOC(=O)C1C(=O)NC(c2ccccc2)=NC1c1cccc(Br)c1 (configuration not stated) | active: 55.2%
8 | CCOC(=O)C1CCCN(C(=O)Cn2ncc3c(C)n(Cc4ccc(F)cc4)c(C)c3c2=O)C1 (configuration not stated) | 0.218%
9 | CCOc1ccc(OCC)c(NC(=O)c2cnn(-c3ccc(F)cc3)c2C2CCN(C(=O)OC(C)(C)C)CC2)c1 | 7.71%
10 | COc1cc(C(=O)OCC(=O)Nc2ccccc2C(=O)NC2CC2)c([N+](=O)[O-])cc1OC | active: 34.1%
11 | CCCNC(=O)Cn1ncc2c3ccccc3n(CCC)c2c1=O | -2.17%
12 | CC1=C(C(N)=O)C(c2cccnc2)n2nc(SCc3ccccc3Cl)nc2N1 (configuration not stated) | active: 34.6%
13 | COc1ccc(S(=O)(=O)N2CCN(Cc3ccc4c(c3)OCO4)CC2)c2ccccc12 | active: 31.3%
14 | CCc1cccc(NC(=O)CSc2n[nH]c(-c3ccccc3Cl)n2)c1 | 9.56%
15 | O=C(Nc1ccc2nc(SCCOc3ccccc3Cl)sc2c1)c1ccco1 | -27.9%
16 | Cc1nnc(N2CCN(c3cccc(Cl)c3)CC2)c2c1nnn2Cc1ccc(F)cc1 | 5.87%
17 | COc1ccc(C)cc1NC(=O)c1c(C(=O)Nc2cccc(C)c2C)sc2nc(C)cc(=O)n12 | -5.4%
18 | COc1cccc(-c2nn(C)c3sc(C(=O)NCCc4cccc(C)c4)cc23)c1 | -8.25%
19 | COc1ccc(CN2CCC(N(CCc3ccccc3)Cc3ccccc3)CC2)c(OC)c1 | active: 34.9%
20 | O=C(Cn1cc2c(n1)CCCC2)Nc1cc(C(F)(F)F)ccc1Cl | -5.73%
21 | CCCn1cc(S(=O)(=O)c2ccccc2)c(=O)c2cc(F)c(N3CCCCCC3)cc21 | 5.29%

Row | SMILES | inhibition
22 | Cc1nc(SCc2ccccc2Cl)c(C#N)c(C)c1C | -21.1%
23 | Cc1cc(C)cc(NC(=O)c2sc3nc4n(c(=O)c3c2C)N=C(c2ccc(F)cc2)CS4)c1 | 10.6%
24 | Cc1ccc2c(c1)C(c1ccccc1)N(C(=O)c1ccc(S(=O)(=O)N3CCCC3)cc1)CC(=O)N2 (configuration not stated) | -2.77%
25 | Cn1c(=O)c2nc3ccc(NC(=O)C(F)(F)F)cc3nc2n(C)c1=O | -18.3%
26 | COc1ccc2sc(N(Cc3cccnc3)C(=O)c3cccs3)nc2c1 | 4.71%
27 | Cc1ccc(NC(=O)CN2C(=O)CSc3ccc(S(=O)(=O)N(C)C)cc32)c(C)c1 | 9.94%
28 | COc1ccc2sc(N(Cc3cccnc3)C(=O)C3COc4ccccc4O3)nc2c1 (configuration not stated) | 14.2%
29 | O=S(=O)(c1ccccc1)c1nnn2c1nc(N1CCN(c3ccccc3)CC1)c1cc(Cl)ccc12 | 0.378%
30 | CCOC(=O)/C(C#N)=C/c1ccc(-c2ccccc2)o1 | -11.5%
31 | Cc1ccc(-n2ncc3c(NC4CCCC4)ncnc32)cc1 | 26.8%
32 | O=C(CN1CCc2ccccc2C1)Nc1ccc(Br)cc1 | active: 58.4%
33 | CCC(Cc1ccccc1)NC(=O)CCS(=O)(=O)c1cc2c(cc1Cl)NC(=O)CO2 (configuration not stated) | -2.33%
34 | COc1ccc(NC(=O)C2CCCN(c3cnccn3)C2)c(OC)c1 (configuration not stated) | 10.3%
35 | CCOc1ccc(CNC(=O)Nc2ccc3c(c2)N(C)C(=O)c2ccccc2S3)cc1 | 16.1%
36 | Cc1ccc(NC(=O)CSc2cn(CC(=O)N3CCOCC3)c3ccccc23)cc1Cl | 1.88%
37 | CCC(C)n1c(=N)c(C(=O)NC2CCCC2)cc2c(=O)n3ccccc3nc21 (configuration not stated) | -2.4%
38 | COc1ccc(NC(=O)Cn2c(SCc3ccc(F)cc3)nc3cccnc32)c(OC)c1 | -11.8%
39 | COc1cccc(N2CCN(C(=O)c3cc4c(=O)n(Cc5cccnc5)ccc4nc3C)CC2)c1 | 3.51%
40 | C=CCc1cc(Cl)ccc1OCCNCCCOC | active: 37.1%
41 | CCOc1ccc(C(=O)Nc2nc(-c3ccc(Br)cc3)ns2)cc1 | 17%
42 | CC1CCn2c(nc3cc(C(=O)NCCc4ccccc4)ccc32)C1 (configuration not stated) | -3.09%

Row | SMILES | inhibition
43 | COC(=O)c1ccccc1NC(=O)CCC(=O)N1CC(C)Sc2ccccc21 (configuration not stated) | 9.33%
44 | COC(=O)C(NC(=O)CCc1c(C)nc2cc(-c3cccc(F)c3)nn2c1C)C(C)C (configuration not stated) | 3.06%
45 | Cc1ccc2c(=O)cc(C(=O)Nc3ccc(S(=O)(=O)N4CCCCC4)cc3)oc2c1 | 6.89%
46 | Cc1cc(C)cc(NC(=O)NCC(O)COc2ccc([N+](=O)[O-])cc2)c1 (configuration not stated) | active: 38.2%
47 | CCCSc1oc(-c2ccco2)nc1S(=O)(=O)c1ccc(Cl)cc1 | -0.311%
48 | CC1(C)CC(=O)C(C(C2=C(O)CC(C)(C)CC2=O)c2ccc([N+](=O)[O-])cc2)C(=O)C1 (configuration not stated) | active: 33.1%
49 | COc1ccc(CC(=O)Nc2sc3c(c2C(=O)Nc2cccc(C)c2)CCCCC3)cc1 | 10%
50 | COc1ccccc1N1CCN(C(c2ccc(Cl)cc2)c2nnc(-c3cccc(F)c3)o2)CC1 (configuration not stated) | -8.75%
51 | O=C(NCCN1CCN(c2ccccc2)CC1)Nc1ccc(Cl)cc1 | active: 82.2%
52 | O=C(Nc1ccc(Cl)c(-c2nc3ccccc3o2)c1)c1ccc(-c2cccc([N+](=O)[O-])c2)o1 | 9.84%
53 | Cc1ccc(Cl)cc1Nc1sc(C(=O)c2ccc(F)cc2)c(N)c1S(C)(=O)=O | -14.1%
54 | O=C(CSc1nc(=O)n(Cc2ccco2)c2c1CCC2)Nc1cccc(F)c1 | -4.87%
55 | CCOc1ccc(CNCCCSc2nnnn2C)cc1OC | -4.26%
56 | COc1cccc(CNC(=O)Cc2csc3nc(-c4ccccc4)cn23)c1 | -7.54%
57 | COc1ccc(C(=O)/C=C/Nc2ccc(S(=O)(=O)Nc3cc(OC)nc(OC)n3)cc2)c(OC)c1 | active: 31%
58 | Cc1cc(=O)n2c(C(=O)Nc3ccc(Br)cc3)c(C(=O)Nc3ccccc3)sc2n1 | -1.55%
59 | CCCCOC(=O)c1ccc(OC(=O)c2sc3ncn(Cc4ccccc4Cl)c(=O)c3c2C)cc1 | -10.5%
60 | COc1ccccc1OCc1nnc(-c2ccccc2)o1 | -2.32%
61 | CCOc1ccccc1NC(=O)Cn1c(=O)n(Cc2ccccc2)c(=O)c2c1c1cc(C)ccc1n2C | 3.59%
62 | COc1ccc(CCNC(=O)c2ccc3c(c2)CCN3S(=O)(=O)c2ccccc2)cc1OC | 6.05%
